Structures are written as SMILES. Values joined by “and” are separate entries in the source; they are usually repeats but may differ in a detail not shown here. Equal values may be shown once.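 These data come from cells grown in 96-well plates and exposed to compound for 48 hours at five concentrations. Here, GI50 denotes the concentration required for 50% inhibition of growth. TGI: concentration producing complete growth inhibition.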

The experiment concerns NCI-H322M lung. Kind of experiment: DTP human tumour cell line panel, 48 h.

In turn, `CC[C@]12C=CCN3CCC4(c5cc(N=Nc6ccccc6)c(OC)cc5N(C)[C@H]4[C@@](O)(C(=O)OC)[C@@H]1OC(C)=O)[C@@H]32` (stereo not given in full) gave a TGI of 35.9 µM. Turning to `COc1cc(C)c(C(=O)O[C@H]2[C@H](O[C@H]3[C@@H](O)COC(O[C@H]4C[C@H]5[C@@H]6CC=C7C[C@@H](O)CC[C@]7(C)[C@H]6CC[C@]5(C)[C@H]4[C@H](C)C(=O)CCC(C)C)[C@@H]3OC(C)=O)OC[C@@H](O)[C@@H]2O)c(C)c1` (stereo not given in full), the GI50 was 4.31 µM and the concentration for total growth inhibition (TGI) came to 21.4 µM. `CCOC1OCCCC1Br` (stereo not given) came in with a TGI greater than 100 µM.

Consider `C=C(C=O)C1CC(=O)C(C(=O)OC)[C@@H]2O[C@@](C)(CC2=O)C[C@@H]2OC(=O)[C@]3(O[C@@H]23)[C@@H](C(=O)OC)C1` (stereo not given in full), for which the GI50 was 24.1 µM and the TGI is 58.9 µM. Taken in the same sequence, the figures for `Cn1c2ccccc2c(=Nc2ccccc2)c2c3ccccc3[nH]c21` were 1.98 µM and 4.02 µM. As to `CCN(CC)CCO/N=C1\CC[C@H]2[C@@H]3CC=C4C[C@@H](O)CC[C@]4(C)[C@H]3CC[C@]12C`, the TGI is 64.4 µM. `CCSc1oc(-c2ccccc2)nc1[P+](c1ccccc1)(c1ccccc1)c1ccccc1`: the GI50 is 0.346 µM and the total growth inhibition concentration (TGI) stood at 2.58 µM. As to `CN(C)CCOC(=O)COc1ccc(Cl)cc1`, the TGI is greater than 100 µM.

`O=C(Nn1c(-c2ccccc2)nc2ccccc2c1=O)c1ccccn1` displayed a total growth inhibition concentration (TGI) greater than 100 µM. Same read-out and setting: for `N#Cc1c(Nc2ccc(F)cc2)[n+]([O-])c2ccc(Cl)cc2[n+]1[O-]` the value was greater than 100 µM; for `COC(=O)c1ccc(-c2nc(C#N)c(N)o2)cc1`, greater than 100 µM. The same measure, in the same setting: for `O=C(/C=C/c1ccc(-c2ccccc2[N+](=O)[O-])o1)NCc1ccc(C(=O)NCCc2ccccc2)cc1` the value was greater than 100 µM; for `O=NC1c2cccc3cccc(c23)C1N=O` (stereo not given), 27.8 µM.

Turning to `Cc1ccc(Cl)cc1Nc1nc(C(F)(F)F)ccc1C(=O)Nc1cccc(C(F)(F)F)c1`, the GI50 was 4.29 µM and the concentration for total growth inhibition (TGI) worked out at 16.7 µM. On to `COc1ccc(-c2oc(=O)ccc2C#Cc2cc(OC)c(OC)c(OC)c2)cc1O`, for which the GI50 is 66.5 µM and the TGI is greater than 100 µM. Taken in the same sequence, the figures for `COc1ccc(OC)c(-c2nc3sccn3c2/C=C2/C(=O)Nc3ccc(Cl)cc32)c1` were 39.5 µM and greater than 100 µM. As to `CCCS(=O)(=O)Nc1ccc(F)c(C(=O)c2c[nH]c3ncc(-c4ccc(Cl)cc4)cc23)c1F`, the GI50 is 4.9 µM and 3.76 µM; the TGI was 18.4 µM and > 10 µM. As for `CN1CCn2c(Br)ccc2C1=O`, the concentration for total growth inhibition (TGI) is greater than 100 µM. Same read-out and setting: for `N#CC1=C(N)C(C#N)(C#N)C(c2ccc(F)cc2)C=C1C1CC1` (stereo not given) the value was 22.7 µM; for `C/C(O)=C(\C=N\C(N)=S)C(=O)Nc1ccccc1C`, greater than 100 µM; for `C=CCC(CNC(=O)OCc1ccccc1)O[Si](C)(C)C(C)(C)C` (stereo not given), greater than 100 µM. Consider `Cc1ccc(S(=O)(=O)N(/N=C(\N)Oc2ccc(Cl)cc2)C(=N)Oc2ccc(Cl)cc2)cc1`, for which the TGI was greater than 100 µM. Regarding `CC1(C)CCC[C@]23C(=O)O[C@](O)(C(=O)C4=C[C@@](C)(/C=C/CCCc5ccc6ccc7cccc8ccc5c6c78)CC[C@@]42O)[C@@H]13`, the GI50 is 0.212 µM and the TGI came out at 0.489 µM. Regarding `COC(=O)C1=C(O)C(C(=O)OC)[C@@]2(O)[C@@H](C(=O)OC)C(c3ccc(OC(=O)/C(=C/c4ccc(Cl)cc4)c4ccc(Cl)cc4)cc3)C[C@@H]1[C@@H]2C(=O)OC` (stereo not given in full), the TGI is greater than 100 µM. On the same count and under the same terms, for `NCCCCCS(=O)(=O)O` the value was greater than 100 µM; for `Cc1cc(NS(=O)(=O)c2ccc(Nc3c4ccccc4nc4c(C(=O)Nc5ccc(S(=O)(=O)N=C(N)N)cc5)cccc34)cc2)no1`, greater than 100 µM. On to `COC(=O)[C@H](C)N1C(=O)N[C@@H](C(C)C)C1=O`, for which the total growth inhibition concentration (TGI) is greater than 100 µM. As to `C=C(CN1CCN(c2ccccc2OC)CC1)c1ccc(C(=O)Nc2ccccc2N)cc1`, the GI50 is 5.66 µM and the total growth inhibition concentration (TGI) worked out at 20.3 µM. As for `O=C1NC(=O)/C(=C/C=C/c2ccccc2)S1`, the GI50 was 6.27 µM and the concentration for total growth inhibition (TGI) was greater than 100 µM.

The TGI is the concentration giving total growth inhibition. The term GI50 denotes the concentration giving 50% growth inhibition.
